From PubChem BioAssay AID588342 (National Center for Advancing Translational Sciences (NCATS), 2011)
In all, about 360,000 compounds went through this assay and about 25,000 (6.9%) were called active. The inconclusive results got no clear call from the source; some entries with a clear call stand among them for comparison. Calls come from the whole dose curve; as a rule, active = well fitted inhibition curve with a large enough effect; inconclusive = small, poorly fitted or top-dose-only effect; inactive = flat fitted curve, though single readings scatter. A potency beside an inconclusive call is a rough fit, not a confirmed value.

Each compound was assayed against Luciferin 4-monooxygenase (Photinus pyralis) (UniProt P08659) (assay: qHTS profiling assay for firefly luciferase inhibitor/activator using purifed enzyme and Km concentrations of substrates (counterscreen for miR-21 project)). Conditions: purified FLuc, luminescence inhibition; series mostly up to 57.5 µM; activity change, negative = inhibition: at the top concentration.
Chain of UniProt P08659 (P08659 whole entry, looked up): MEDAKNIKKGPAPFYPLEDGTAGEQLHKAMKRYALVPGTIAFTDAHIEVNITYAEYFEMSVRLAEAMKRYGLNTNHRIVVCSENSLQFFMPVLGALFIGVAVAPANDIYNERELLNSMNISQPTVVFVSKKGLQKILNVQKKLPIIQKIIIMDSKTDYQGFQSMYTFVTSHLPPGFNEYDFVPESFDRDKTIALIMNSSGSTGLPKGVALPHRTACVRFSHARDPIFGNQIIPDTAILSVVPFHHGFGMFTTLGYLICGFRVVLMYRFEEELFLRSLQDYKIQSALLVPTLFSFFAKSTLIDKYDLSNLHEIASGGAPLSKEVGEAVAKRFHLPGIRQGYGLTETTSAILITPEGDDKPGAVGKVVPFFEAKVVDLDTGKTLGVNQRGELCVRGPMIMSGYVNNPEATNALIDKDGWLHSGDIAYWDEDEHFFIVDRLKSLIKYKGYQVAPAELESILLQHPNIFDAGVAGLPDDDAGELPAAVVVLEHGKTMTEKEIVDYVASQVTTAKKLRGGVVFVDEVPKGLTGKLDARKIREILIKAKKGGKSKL
Procedure, shortened: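 Purified P. pyralis luciferase (10nM final) with 10uM D-luciferin and 10uM ATP (Km levels) in 50mM Tris acetate pH 7.5, 10mM Mg acetate, 0.01% Tween-20, 0.05% BSA; qHTS 6-point titration, ~60 µM downward; luminescence read.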
Note: nearly all actives have a fitted effect of over 55% in size.
Potency is the fitted concentration of half-maximal effect; tags give direction and shape of the fitted curve.
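Throughout, for activity change, negative = inhibition: plate controls were vehicle for no effect and reference inhibitor for full effect.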

SMILES	Potency	activity change, negative = inhibition
O=C(/C=C/c1cccc(Br)c1)c1ccc2c(c1)OCO2	active: 10.7 µM	–
Cc1ccc(C)c(N2CCN(c3nc4ccccc4n4c(C)nnc34)CC2)c1	inconclusive: 9.53 µM [inhibitor, partial curve, poor fit]	–
CCc1nnc(NS(=O)(=O)c2ccc(NC(=O)c3cccc(OC)c3)cc2)s1	inconclusive: 30.1 µM [inhibitor, single point]	–
O=c1cc(O)c2sc(Nc3cccc(C(F)(F)F)c3)nc2[nH]1	inconclusive: 26.9 µM [inhibitor, partial curve, poor fit]	–
O=C(NC(Cc1ccccc1)C(=O)O)OCC1c2ccccc2-c2ccccc21 (configuration not stated)	inconclusive: 23.9 µM [inhibitor, partial curve, poor fit]	–
Cc1cccc2c(C(=O)O)cc(-c3cccnc3)nc12	inconclusive: 15.1 µM [inhibitor, partial curve, poor fit]	–
CCOc1ccc(C(=O)c2cccs2)cc1	active: 16.9 µM	–
COc1cc(C(=S)NCc2ccccc2)cc(Br)c1O	inconclusive: 23.9 µM [inhibitor, single point]	–
CCCCN1C(=O)CN(C2CCCCC2)C(=O)C1c1ccc(OC(C)C)c(OC)c1 (configuration not stated)	–	inactive: -1.22%
COc1ccccc1CNC(=O)COc1ccccc1OC	–	inactive: 3.62%
COCC(=O)Nc1nc2ccc(C)cc2s1	active: 9.53 µM	–
COc1ccccc1C1NC=C([N+](=O)[O-])C=C1[N+](=O)[O-] (configuration not stated)	inconclusive: 30.1 µM [inhibitor, partial curve, poor fit]	–
N#Cc1ccc(NC(=O)Cn2cnc(S(=O)(=O)N3CCCC3)c2)cc1	–	inactive: 5.43%
O=C(c1cccc(S(=O)(=O)N2CCCC2)c1)N1CCCC(C(F)(F)F)C1 (configuration not stated)	–	inactive: 1.43%
COc1ccccc1C(=O)NNC(=O)c1ccc(NC(=O)CC(C)C)cc1	–	inactive: -12.1%
Cc1cc(C)n(C2CC(=O)N(c3ccc(C)c(Cl)c3)C2=O)n1 (configuration not stated)	–	inactive: -1.15%
Cc1ccc(C)c(NC(=O)C(=O)NCCc2csc3nc(-c4ccccc4C)nn23)c1	–	inactive: -6.7%
COc1cc(NC(=O)[C@@H]2CCCN(S(=O)(=O)c3cccc4cccnc34)C2)cc(OC)c1OC	–	inactive: -3.81%
Cc1cc(C(=O)N/N=C/c2cccn2C)n[nH]1	inconclusive: 26.9 µM [inhibitor, partial curve, poor fit]	–

SMILES	Potency	activity change, negative = inhibition
CC(C)(C)OC(=O)N1CCC(c2c(C(=O)Nc3ccc4c(c3)OCCO4)cnn2-c2ccccc2)CC1	inconclusive: 37.9 µM [inhibitor, single point]	–
CCOC(=O)N1CCC(NC(=O)CS(=O)(=O)Cc2nc(-c3cccc(Cl)c3)oc2C)CC1	–	inactive: 0.61%
O=C(CC(NC(=O)OCc1ccccc1)C(=O)O)OCc1ccccc1 (configuration not stated)	inconclusive: 16.9 µM [inhibitor, partial curve]	–
c1ccc(-c2cnnc(N3CCCCC3)n2)cc1	active: 10.7 µM	–
Cc1ccc(-c2nc(-c3cccnc3)no2)c(C)c1	inconclusive: 2.69 µM [inhibitor, full curve, poor fit]	–
COc1ccc2nc3sc(C(=O)NCCCN4CCc5ccccc5C4)cc3cc2c1	active: 19 µM	–
CC/C(=N\NC(=O)c1ccc(N2CCCC2=O)cc1)c1ccccc1	inconclusive: 37.9 µM [inhibitor, partial curve, poor fit]	–
O=C(O)CCCCCNC(=O)Nc1ccc2c(c1)OCCO2	active: 9.53 µM	–
C(=N\n1cnc2ccccc21)/c1cccnc1	inconclusive: 37.9 µM [inhibitor, partial curve, poor fit]	–
COc1cccc(-c2ccc(NC(=O)C3CCCN(Cc4nccn4C)C3)cc2)c1 (configuration not stated)	inconclusive: 26.9 µM [inhibitor, single point]	–
Cc1cc(NC(=O)c2cccc([N+](=O)[O-])c2)no1	–	inactive: -0.239%
CCOC(=O)c1[nH]c2ccccc2c1NC(=S)Nc1ccccc1	inconclusive: 21.3 µM [inhibitor, single point]	–
CC(C)(C)c1ccc(C(=O)Nc2cccc([N+](=O)[O-])c2)cc1	active: 1.69 µM	–
CN(C(=O)c1ccc(NC(=O)Cc2ccc(NC(=O)C3CCCN(C(=O)C4CC4)C3)cc2)cc1)C1CC1 (configuration not stated)	inconclusive: 14.1 µM [inhibitor, partial curve, poor fit]	–
Cc1cc(C(=O)Nc2cccc(O)c2)co1	inconclusive: 37.9 µM [inhibitor, single point]	–
CN(C)c1ccc(CN(CC2CCCO2)C(=O)c2ccc(Br)cc2)cc1 (configuration not stated)	–	inactive: 2.33%
Cc1ccc(O)c(CNc2cccc3cccnc23)c1	–	inactive: -17.8%
Cc1cccc(/C(N)=N/OC(=O)c2ccco2)c1	active: 1.9 µM	–
